# Hit rate of the full screen: of about 310,000 compounds, about 2,200 (0.71%) showed an effect of 50% or more. The effect is printed as a negative number. The list shows a part of the results.
# Molecular target: human ether-à-go-go-related gene (hERG) potassium channel (human, UniProt Q12809)
# Assay: primary screen, population patch clamp on CHO cells stably expressing hERG
# Chain of human ether-à-go-go-related gene (hERG) potassium channel (Q12809 whole entry, looked up): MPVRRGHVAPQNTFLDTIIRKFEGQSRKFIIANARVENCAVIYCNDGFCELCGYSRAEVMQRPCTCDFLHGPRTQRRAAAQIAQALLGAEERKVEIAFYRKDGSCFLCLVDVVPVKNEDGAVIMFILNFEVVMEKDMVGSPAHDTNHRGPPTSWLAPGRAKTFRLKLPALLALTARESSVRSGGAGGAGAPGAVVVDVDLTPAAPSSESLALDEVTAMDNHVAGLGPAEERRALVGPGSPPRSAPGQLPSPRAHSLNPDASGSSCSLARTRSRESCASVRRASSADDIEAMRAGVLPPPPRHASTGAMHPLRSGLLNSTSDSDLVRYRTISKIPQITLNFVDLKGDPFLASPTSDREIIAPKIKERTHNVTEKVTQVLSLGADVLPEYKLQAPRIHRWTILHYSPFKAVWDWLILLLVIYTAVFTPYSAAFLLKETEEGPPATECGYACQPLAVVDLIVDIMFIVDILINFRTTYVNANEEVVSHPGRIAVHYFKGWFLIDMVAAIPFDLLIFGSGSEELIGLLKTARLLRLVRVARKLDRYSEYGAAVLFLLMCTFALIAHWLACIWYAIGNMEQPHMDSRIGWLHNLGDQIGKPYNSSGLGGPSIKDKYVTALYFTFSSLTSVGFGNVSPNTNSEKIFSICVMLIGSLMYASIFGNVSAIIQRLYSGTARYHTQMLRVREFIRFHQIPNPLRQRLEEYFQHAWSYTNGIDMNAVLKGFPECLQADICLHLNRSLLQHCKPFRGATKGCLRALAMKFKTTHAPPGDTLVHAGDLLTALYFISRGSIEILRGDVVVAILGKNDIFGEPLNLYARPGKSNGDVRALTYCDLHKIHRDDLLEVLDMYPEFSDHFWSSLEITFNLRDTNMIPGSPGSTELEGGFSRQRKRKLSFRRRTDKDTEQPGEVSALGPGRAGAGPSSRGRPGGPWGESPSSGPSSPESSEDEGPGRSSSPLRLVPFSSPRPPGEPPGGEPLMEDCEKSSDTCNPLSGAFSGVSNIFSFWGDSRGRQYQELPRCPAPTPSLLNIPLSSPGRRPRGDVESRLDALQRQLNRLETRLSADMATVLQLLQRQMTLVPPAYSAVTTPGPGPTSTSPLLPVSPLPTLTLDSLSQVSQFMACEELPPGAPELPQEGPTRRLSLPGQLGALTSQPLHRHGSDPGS
row,SMILES,"hERG current change (%, negative = inhibition) at 1uM [%]"
1,COc1ccc(CNC(=O)Cn2c(=O)n(CCC(=O)N3CCCCC3)c(=O)c3sccc32)cc1,0.388
2,CN(C)Cc1ccccc1Cc1ccccc1.O=C(O)/C=C\C(=O)O,6.94
3,O=C(Nc1cc2c(cc1Br)OCCCO2)c1ccccc1,-4.84
4,CCOc1ccc(C(=O)Nc2ccc(C(=O)N3CCOCC3)cc2)c(OCC)c1,7.69
5,Cc1ccc(C)c(NC(=S)NNC(=O)c2ccc(Br)o2)c1,1.32
6,O=C(CSc1nnc(-c2ccccc2)n1-c1ccccc1)NCc1ccco1,7.59
7,COC(=O)C1C(=O)CC(C)(O)C(C(=O)OC)C1c1ccccc1F (centres unmarked),13.7
8,CN(CC(=O)Nc1cccc(F)c1)C(=O)c1ccc(S(=O)(=O)N2CCCC2)cc1,7.96
9,O=C(Nc1ccccc1-c1nc2ccccc2s1)c1ccc(Br)o1,15.3
10,CCOc1ccccc1-n1c(COc2ccc(C)cc2)nnc1SCC(N)=O,5.39
11,O=C(/C=C/Nc1ccc(F)cc1F)c1cccs1,18.4
12,Cc1cc(C)c(NC2=NS(=O)(=O)c3ccccc32)c(C)c1,-16.6
13,Cn1c(=O)[nH]c(=O)c2c1nc(N1CCCC1)n2CCCSc1nc2ccccc2o1,10.9
14,CCN1CCCC1CNC(=O)c1cc2c(-c3ccc(Cl)cc3)nn(C)c2s1 (centres unmarked),-21
15,Cc1ccnc(NC(=O)c2ccc(S(=O)(=O)c3ccccc3)cc2)c1,9.76
16,COC(=O)C1=C(C)NC(=O)NC1c1cc(Cl)ccc1OC (centres unmarked),10.7
17,Cc1nnc(SCC(=O)N2CCCCC2)s1,5.2
18,COc1cc(C=O)ccc1Oc1cnccn1,12.2
19,O=C(CCN1C(=O)C2C3CC(C(Br)C3Br)C2C1=O)OCC(=O)c1cccc([N+](=O)[O-])c1 (centres unmarked),25.7
20,CCOC(=O)[C@@H]1[C@H]2COc3ccccc3[C@@H]2N2C(=O)N(c3ccc(Cl)cc3)C(=O)[C@]12C,12.9
21,O=c1c2ccccc2nc(-c2cccs2)n1-c1cnccn1,8.53
22,O=C(NC1CCCC1)C(c1ccccn1)N(C(=O)c1csnn1)C1CCCCC1 (centres unmarked),0.749

row,SMILES,"hERG current change (%, negative = inhibition) at 1uM [%]"
1,CC(C)(O)C(=O)N=Nc1c(O)[nH]c2ccccc12,19
2,COc1ccccc1N1CCN(C(=O)CCCCn2c(=O)[nH]c3ccsc3c2=O)CC1,-1.62
3,O=C(O/N=C\c1ccc(N2CCOCC2)c([N+](=O)[O-])c1)c1ccc(F)cc1,-2.21
4,O=C(Nc1ccccc1N1CCOCC1)c1cccc(Oc2ccccc2)c1,7.46
5,CCN(C(=O)CSc1nnc(COc2cccc(C)c2)o1)c1nc(C)cs1,11.7
6,Cc1cc(-n2c(C)cc(C(=O)CSc3[nH]c(=O)cc(C(F)(F)F)c3C#N)c2C)no1,8.5
7,CCOC(=O)NN=C1c2ccccc2-c2ccccc21,11.8
8,Cc1ccccc1Nc1nc(N)nc(CCl)n1,17.9
9,Oc1ccc(/C=N/Nc2ccc3ccccc3c2)c(O)c1,4.75
10,C=CCNCCOc1ccc(C(C)(C)c2ccccc2)cc1.O=C(O)C(=O)O,5.47
11,COC(=O)c1c(NS(=O)(=O)Cc2ccccc2)sc2c1CCCC2,6.69
12,Cc1nonc1C1CCCN1C(=O)c1cc(COc2ccc(F)cc2Cl)on1 (centres unmarked),8.74
13,Cc1c(Br)c(=O)[nH]c(=O)n1COCc1ccccc1,0.16
14,CC(C)NC(=S)N1CCCN(c2ncccc2[N+](=O)[O-])CC1,17.3
15,Cc1ccc(C(=O)N[C@H](C(=O)Nc2ccc(F)cc2)C(C)C)cc1,17.2
16,O=C(Nc1ccc2nc3n(c(=O)c2c1)CCCCC3)c1ccccc1[N+](=O)[O-],14.6
17,COc1c(O)ccc2c1-c1c3c(cc4c1C(C2)N(C)CC4)OCO3 (centres unmarked),-0.891
18,CCN(CC)CCCNC(=O)/C=C/C(=O)O,4.16
19,CC1=CC(=O)OC2CC3OC4C[C@@H](C)C5OC6CC7O[C@]8(C)C/C=C\C9OC%10CC%11OC(CC(C)CO)CC(O)[C@]%11(C)OC%10CC9OC8C[C@]7(C)O[C@]6(C)CCC5OC4C[C@]3(C)OC12 (some centres unmarked),16.6
20,COc1ccccc1N(C)S(=O)(=O)c1ccc(C(=O)Nc2ccc3nc(C)sc3c2)cc1,14.4
21,COc1ccc(C(C#N)N2CCCCCC2)cc1OC (centres unmarked),9.04
22,Cc1ccc(C(=O)N2CCN(c3ncc(C(F)(F)F)cc3Cl)CC2)s1,-10.9

row,SMILES,"hERG current change (%, negative = inhibition) at 1uM [%]"
1,Cc1ccc(C(=O)N2CC(C)SC2=Nc2cccc(S(=O)(=O)N(C)C)c2)cc1 (centres unmarked),8.74
2,O=C1OC(NC(=O)c2ccccc2)C(n2cc(CO)nn2)=C1Cl (centres unmarked),-3.22
3,C/C(=N\NS(=O)(=O)c1ccc(C)c([N+](=O)[O-])c1)c1ccc2c(c1)OCO2,12.8
4,Cc1ccc(Oc2ccc(Cl)cc2NC(=O)c2cnccn2)cc1,4.49
5,CC(=O)N1CCCc2cc(S(=O)(=O)N3CCCC(C(=O)NCc4ccccc4Cl)C3)ccc21 (centres unmarked),11.7
6,CCOc1ccccc1C(=O)OCC(=O)NCC1CCCO1 (centres unmarked),13.1
7,COc1ccccc1/C=C(\NC(=O)c1cccc(C)c1)C(=O)Nc1ccccn1,11.1
8,COCCCN(C(=O)Nc1ccc(C)c(C)c1)C(C)c1ccccn1 (centres unmarked),13.4
9,Cc1ccc(NC(=O)CSCc2ccc(F)cc2)cc1,5.43
10,Cc1noc(/C=C/N(C)C)c1S(=O)(=O)N1CCCC(C(=O)N2CCCCC2)C1 (centres unmarked),13.5
11,COc1cccc(N2CCN(c3ccc4nnc(CCC(=O)Nc5ccc(C)cn5)n4n3)CC2)c1,-23.1
12,N#CC1(NC(=O)COc2ccc(S(=O)(=O)N3CCCC3)cc2[N+](=O)[O-])CCCCC1,2.94
13,CC(C)CNC(=O)C(=O)NCC1OCCN1S(=O)(=O)c1cccs1 (centres unmarked),10.1
14,Cc1c(C(=O)/C=C/N(C)C)nnn1-c1ccc(Cl)cc1C#N,15.6
15,O=[N+]([O-])c1ccc(C(O)CN2CCN(C/C=C/c3ccccc3)CC2)cc1 (centres unmarked),-85.5
16,COc1ccc(CNC(=S)Nc2ccc3nc(N4CCN(C)CC4)cc(C)c3c2)cc1,-4.78
17,CN(C)CCC=C1c2ccccc2C=Cc2ccccc21.Cl,2.92
18,COc1ccc(Cl)cc1N(CC(=O)NCCSCc1ccccc1)S(C)(=O)=O,4.46
19,Cc1ccc(OCCn2c(C)c(/C=N/n3cnnc3)c3ccccc32)cc1,9.47
20,Cc1oc(-c2ccc(Cl)cc2)cc1C(=O)/C(C#N)=C/Nc1ccccc1,11.8
21,O=C(NCc1ccc(F)cc1)C1CC(=O)N(C2CCCC2)C1 (centres unmarked),14.7
22,Cc1ccccc1Cn1c(C)cc(C)c(C#N)c1=O,9.17

row,SMILES,"hERG current change (%, negative = inhibition) at 1uM [%]"
1,Cc1nnc(SC(C)C(=O)NC2CCCCC2C)s1 (centres unmarked),9.42
2,C/C(=C\c1ccccc1)C(=O)N1CCN(Cc2ccc3c(c2)OCO3)CC1,-3.77
3,Cc1ccc(/C=N/NC(=O)Cc2ccc(Cl)cc2)s1,6.18
4,Cc1ccc(-c2nnc(-n3nc(C)cc3C)c3ccccc23)cc1,15.1
5,COc1cc2c(cc1OC)C(=O)N(C)CC2,1.89
6,CCC(C)NC(=S)NNC(=O)c1ccncc1 (centres unmarked),13.9
7,Cc1nnc2ccc(-c3cccc(NC(=O)c4ccco4)c3)nn12,1.54
8,O=c1nc(SCc2ccc(Cl)cc2)nc(-c2ccccc2)[nH]1,14.5
9,CCC(=O)N1c2ccc(S(=O)(=O)CCC(=O)NCCC3=CCCCC3)cc2CC1C (centres unmarked),3.75
10,COc1ccccc1C(=O)NCC(=O)NNc1ncnc(N)c1[N+](=O)[O-],12.2
11,CC(Oc1cc2oc(=O)c3c(c2cc1Cl)CCC3)C(=O)NCCN1CCOCC1 (centres unmarked),10.2
12,CC(=O)c1c(N2CCOCC2)[nH]c(-c2ccccc2)nc1=S,16.3
13,Cc1ccc(NCC(=O)N/N=C/c2ccc(C(=O)O)cc2)cc1,14.3
14,O=C(O)C1CC=CCC1C(=O)Nc1ccc2c(c1)OCCO2 (centres unmarked),7
15,CCC1(c2ccccc2)NC(=O)N(CC(=O)Nc2ccccc2N2CCCCC2)C1=O (centres unmarked),-4.28
16,Cn1nc(C(=O)Nc2nc3ccccc3[nH]2)c2ccccc2c1=O,11.5
17,O=C(NC1CCCC1)C(c1cccnc1)N(CCc1ccccc1)C(=O)c1ccco1 (centres unmarked),-16.7
18,O=C(O)c1cccc(Nc2cc(Cl)c3nonc3c2[N+](=O)[O-])c1,6.49
19,COc1ccccc1OCCn1cc(/C=C(\C#N)C(=O)NCc2cccs2)c2ccccc21,9.73
20,C=CCn1c(=NC(=O)c2cc(-c3cccs3)nc3ccccc23)sc2cc(S(N)(=O)=O)ccc21,13.9

# Reference: paper PMC4336329 (PLoS ONE, 2015)
